# Laboratory results: PMC11637378, “Optogenetic screening of MCT1 activity implicates a cluster of non-steroidal anti-inflammatory drugs (NSAIDs) as inhibitors of lactate transport” (PLOS ONE, 2024)
# Counter-ions that a name gives are not always drawn. Like-named read-outs stand apart in the source and are kept apart here.
# Target: T1, R. norvegicus MCT1 (F360C) (UniProt P36035+P53987, F360C)
# T1 sequence (P36035+P53987 with tags, fused parts or gaps P53987:F360C): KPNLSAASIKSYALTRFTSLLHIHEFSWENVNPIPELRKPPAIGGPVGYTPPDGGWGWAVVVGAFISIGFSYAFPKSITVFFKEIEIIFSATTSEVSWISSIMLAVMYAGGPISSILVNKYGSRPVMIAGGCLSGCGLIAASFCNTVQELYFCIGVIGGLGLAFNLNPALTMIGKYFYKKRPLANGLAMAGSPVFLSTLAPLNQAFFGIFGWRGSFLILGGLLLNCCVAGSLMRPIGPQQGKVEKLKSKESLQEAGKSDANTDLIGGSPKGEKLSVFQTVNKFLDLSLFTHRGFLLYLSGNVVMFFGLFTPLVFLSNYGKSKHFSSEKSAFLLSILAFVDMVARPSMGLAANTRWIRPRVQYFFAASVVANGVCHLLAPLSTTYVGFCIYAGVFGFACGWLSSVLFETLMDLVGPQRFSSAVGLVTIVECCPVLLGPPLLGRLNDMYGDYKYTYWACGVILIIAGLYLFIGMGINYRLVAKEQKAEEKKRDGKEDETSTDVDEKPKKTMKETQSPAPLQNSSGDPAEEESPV
# Assay type: cell-based
Compound,Fraction (10 μM),Percent AZD3965 (10 μM) [%],Z.score (10 μM),Percent AZD3965 [%],Day1,Day2,Fraction,Z.score,further results
CCCc1c(-c2ccc(O)cc2)nn(-c2ccc(O)cc2)c1-c1ccc(O)cc1 [listing 1 of 2 here],0.1484,98.6204,-5.549,,,,,,
Cc1ccc(S(=O)(=O)N[C@@H](Cc2ccccc2)C(=O)CCl)cc1,,,,72.7675,,,,,
CCCc1c(-c2ccc(O)cc2)nn(-c2ccc(O)cc2)c1-c1ccc(O)cc1 [listing 2 of 2 here],,,,,0.1177,0.7933,0.1484,-5.549,Percent: 98.6204%
"O=C(/C=C/c1ccc(O)cc1)c1ccccc1O [2',4-DIHYDROXYCHALCONE]",0.1914,91.8807,-5.661,,,,,,
"CC(C)Cn1c(=O)n(C)c(=O)c2[nH]cnc21 [3-Isobutyl-1-methylxanthine, reference compound]",,,,,,,,,Day1 (OD600 after 24 hours non-permissive dark conditions): 0.5765; Day2 (OD600 after additional 24 hours permissive conditions): 0.8308; Fraction (growth in non-permissive phase divided by growth in permissive phase) (10 μM): 0.6939; Percent (percent AZD3965 score) (10 μM): -6.283%; Z-score (10 μM): 0.4262
O=C(/C=C/c1ccccc1)c1ccc(O)cc1 [4'-HYDROXYCHALCONE],0.403,53.1668,-4.432,,0.3202,0.7945,,,
O=C1CC(c2ccc(O)cc2)Oc2ccccc21 (stereo not drawn) [4'-HYDROXYFLAVANONE],0.2037,86.9305,-4.32,,,,,,
O=C(/C=C/c1ccc(O)cc1)c1ccccc1 [4-hydroxychalcone],0.1662,96.6471,-5.954,,0.1213,0.7298,0.1662,-5.954,Percent: 96.6471%
N#Cc1c(O)c2c(-c3ccc(-c4ccccc4O)cc3)csc2[nH]c1=O [A-769662],,,,67.7008,0.2581,0.7937,0.3252,-3.529,Percent: 67.7008%
CC[n+]1c(/C=C/C=C2/N(C)c3ccccc3C2(C)C)sc2ccccc21.[I-] [AC-93253 iodide],0.09381,109.58,-6.166,,0.0788,0.84,,,
CCOC(=O)[C@H](C)C[C@@H](Cc1ccc(-c2ccccc2)cc1)NC(=O)CCC(=O)O [AHU377],,,,19.5836,0.5557,0.8355,0.6651,-3.326,Percent: 19.5836%
Nc1c2ccccc2nc2ccccc12 [AMINACRINE],,,,41.534,0.4189,0.8675,0.4829,-3.143,
Br.Br.N=C(N)SCCN [AMINOETHYLISOTHIOUREA DIHYDROBROMIDE],0.2186,83.8553,-4.168,,0.2008,0.9187,,,
COc1ccc([C@@H](C)C(=O)c2ccc(O)cc2O)cc1 [ANGOLENSIN (R)],0.4554,43.3447,-3.613,,,,,,
C[C@@H]1CC[C@H]2[C@@H](C)C(=O)O[C@@H]3O[C@@]4(C)CC[C@@H]1[C@]32OO4 [ARTEMISININ],0.3524,63.2237,-3.1904,,0.289,0.8202,,,
O=C1NC(=O)/C(=C/c2ccc(-c3ccc(F)cc3O)o2)S1 [AS-252424],0.4139,43.404,-3.172,,0.3528,0.8524,,,
O=C(O)COC(=O)Cc1ccccc1Nc1c(Cl)cccc1Cl [Aceclofenac],,,,32.7797,,,,,Z-score: -1.654
COc1ccc2c(c1)c(CC(=O)OCC(=O)O)c(C)n2C(=O)c1ccc(Cl)cc1 [Acemetacin],,,,12.0016,,,,,Z-score: -0.6058
CC(=O)Nc1ccc(O)cc1 [Acetaminophen],,,,-5.341,,,,,Z-score: 0.28
CC(=O)Nc1ccc(OC(=O)c2ccccc2O)cc1 [Acetaminosalol],,,,-5.36,,,,,Z-score: 0.2703
N.S=C(S)N1CCCC1 [Ammonium pyrrolidinedithiocarbamate],,,,48.1785,0.3912,0.8992,0.4351,-3.255,

Compound,Fraction (10 μM),Percent AZD3965 (10 μM) [%],Z.score (10 μM),Percent AZD3965 [%],Day1,Day2,Fraction,Z.score,further results
COc1ccc([C@@H](C)C(=O)c2ccc(O)cc2O)cc1 [Angolesin],,,,,0.3653,0.8022,0.4554,-3.613,Percent: 43.3447%
O=c1cc(-c2ccc(O)cc2)oc2cc(O)cc(O)c12 [Apigenin],0.38,50.3113,-3.677,,0.3196,0.841,0.38,-3.677,Percent: 50.3113%
CO[C@H]1O[C@@H]2O[C@@]3(C)CC[C@H]4[C@H](C)CC[C@@H]([C@H]1C)[C@@]24OO3 [Artemether],0.3355,63.7045,-3.201,,0.2584,0.7701,,,
"CC(=O)Oc1ccccc1C(=O)O [Aspirin, reference compound]",,,,-5.902,,,,,Z-score: 0.3904
CC(C)c1c(C(=O)Nc2ccccc2)c(-c2ccccc2)c(-c2ccc(F)cc2)n1CC[C@@H](O)C[C@@H](O)CC(=O)O [Atorvastatin calcium salt trihydrate],0.3298,60.5626,-4.426,,,,,,
CC(C)c1c(C(=O)Nc2ccccc2)c(-c2ccccc2)c(-c2ccc(F)cc2)n1CC[C@@H](O)C[C@@H](O)CC(=O)O [Atorvastatin],,,,,0.2862,0.8679,0.3298,-4.426,Percent: 60.5626%
Cc1ccc(S(=O)(=O)/C=C/C#N)cc1 [BAY 11-7082 (BAY 11-7821)],,,,99.1029,0.142,0.9047,0.157,-4.054,
CCc1oc2ccccc2c1C(=O)c1cc(Br)c(O)c(Br)c1 [BENZBROMARONE],,,,28.6488,0.4409,0.7738,0.5698,-3.446,
COc1ccc(-c2coc3cc(OC(C)=O)cc(OC(C)=O)c3c2=O)cc1 [BIOCHANIN A DIACETATE],0.4741,39.8371,-3.3205,,0.3766,0.7944,,,
COc1ccc(-c2coc3cc(O)cc(O)c3c2=O)cc1 [BIOCHANIN A],0.1878,92.5667,-5.703,,,,,,
Cc1ccc(S(=O)(=O)/C=C/C#N)cc1 [Bay 11-7082],,,,94.5722,0.1691,0.925,0.1828,-6.39,
CN(C)CCCOc1nn(Cc2ccccc2)c2ccccc12 [Benzydamine],,,,0.977,,,,,Z-score: -0.1176
COc1ccc(-c2coc3cc(O)cc(O)c3c2=O)cc1 [Biochanin A],,,,,0.1519,0.809,0.1878,-5.703,Percent: 92.5667%
O=C(/C=C/c1ccc(O)cc1)CC(=O)/C=C/c1ccc(O)cc1 [Bisdemethoxycurcumin],0.2689,74.3976,-4.186,,0.2019,0.7507,0.2689,-4.186,Percent: 74.3976%
Nc1c(CC(=O)O)cccc1C(=O)c1ccc(Br)cc1 [Bromfenac],,,,-1.725,,,,,Z-score: 0.12
CCCCOc1ccc(CC(=O)NO)cc1 [Bufexamac],,,,41.7896,,,,,Z-score: -2.109
"C=CC(C1=CC(=O)C(OC)=CC1=O)c1ccc(O)cc1 (stereo not drawn) [DALBERGIONE, 4-METHOXY-4'-HYDROXY-]",0.1989,90.4644,-5.573,,,,,,
C=CC(C1=CC(=O)C=CC1=O)c1ccccc1 (stereo not drawn) [DALBERGIONE],0.4165,49.2593,-3.0349,,,,,,
COc1ccc2c(c1)OCc1c-2oc2cc(OC)ccc12 [DEHYDROVARIABILIN],0.3152,69.6526,-5.806,,,,,,
C[C@@H]1CC[C@@]2(OC1)O[C@H]1[C@@H](O)[C@H]3[C@@H]4CC[C@H]5C[C@@H](O[C@@H]6O[C@H](CO)[C@H](O[C@@H]7O[C@H](CO)[C@@H](O)[C@H](O[C@@H]8OC[C@@H](O)[C@H](O)[C@H]8O)[C@H]7O[C@@H]7O[C@H](CO)[C@H](O)[C@H](O[C@@H]8O[C@H](CO)[C@@H](O)[C@H](O)[C@H]8O)[C@H]7O)[C@H](O)[C@H]6O)[C@H](O)C[C@]5(C)[C@H]4CC[C@]3(C)[C@H]1[C@@H]2C [DIGITONIN],0.1212,105.169,-6.479,,,,,,
